Measured values taken from PubChem BioAssay AID624418 (National Center for Advancing Translational Sciences (NCATS), 2012).
Screen size: about 410,000 compounds; about 530 (0.13%) were called active. Inconclusive results, whose numbers are uncertain, are shown with a selection of clear calls. Calls come from the whole dose curve; as a rule, active = well fitted inhibition curve with a large enough effect; inconclusive = small, poorly fitted or top-dose-only effect, or another doubt; inactive = no such curve, though single readings can be large or run the other way. Where the call is inconclusive, the potency comes from a doubtful curve fit.

Assay: qHTS of GLP-1 Receptor Inverse Agonists: Cytotox Screen
Details: HEK293 cAMP-luciferase reporter cells, luminescence, 24 h; series mostly up to 38.3 µM
Description: The overall goal of this project was to develop a novel assay for discovering small molecule ligands for class B1 G protein-coupled receptors (GPCRs). Very few agonists (or inverse agonists) with generally weak activity for this entire group of physiologically important receptors are known to date. To establish proof-of-principle that this critical bottleneck can be overcome with a suitable screening approach, our studies focused on the class B1 receptor for glucagon-like peptide-1 (GLP-1R), a potential therapeutic target for diabetes and neurodegenerative disease.
The assay was developed using a cell-based functional readout. Toward this goal, stably transfected HEK293 cell clones were established that co-express (i) a cAMP-responsive luciferase reporter gene, and (ii) constitutively active GLP-1R that upon ligand interaction inhibit (inverse agonists) the luciferase activity. In addition, two control cell lines were developed: (i) one that express only the cAMP-responsive reporter gene to enable initial exclusion of GLP-1R independent effects of candidate probes; and (ii) one with the reported gene cloned with another constitutively active orphan receptor GPR119 to enable exclusion of GLP-1R independent inhibitor effects of candidate inverse agonists.
To that end, this assay was optimized for 1536-well format and screened against the MLSMR. Then the same collection was run in this cytotoxicity assay where inhibition was the undesired outcome.
NIH Molecular Libraries Probe Production Network [MLPCN]
NIH Chemical Genomics Center [NCGC]
PI Name: Martin Beinborn, Tufts Medical Center
Six ul of cell suspension (200 cells/uL in DMEM + 10% Nu serum + 1% pen-strep) is dispensed in a white solid 1536-well plate. The plates are incubated for 12 hours at 37 deg C at 5% CO2 followed by addition of 23 nL compounds. After 24 hr incubation at 37 deg C and 5% CO2, 3 uL of luciferase assay detection reagent is added. A luminescence read is obtained on the PerkinElmer Viewlux after 12 min incubation at room temperature.
Potency is the fitted concentration of half-maximal effect.

Compound	Potency
O=C(NCCC(=O)N1CCCCCCC1)c1ccc(Br)cc1	inactive
O=C(NCCc1cccs1)c1ccc(CS(=O)Cc2ccc(Cl)cc2)o1 (configuration not stated)	inactive
CCc1ccc(-c2csc(NC(=O)C3CC(=O)N(c4ccc5c(c4)OCCO5)C3)n2)cc1 (configuration not stated)	inconclusive: 12.6 µM [inhibitor, single point]
CCOC(=O)c1cnc(Nc2nc3ccccc3o2)nc1CSc1nnc(C)s1	inconclusive: 0.501 µM [inhibitor, full curve, poor fit]
COc1ccc(C(OC(=O)c2ccco2)C(=O)NC2CCCC2)cc1OC (configuration not stated)	inactive
O=C(/C=C/c1cccc(F)c1)Nc1cc(S(=O)(=O)N2CCOCC2)ccc1Cl	inactive
CC(C)C[C@H]1CN=C(Nc2ccccc2)N1CCCCc1ccccc1	inconclusive: 28.2 µM [inhibitor, single point]
C1=CC2=NC34CCCCC3CC3=C(CCCC3)N4C2=CC1=NC1CCCCC1 (configuration not stated)	inconclusive: 10 µM [inhibitor, single point]
c1ccc(-c2nc(NC3CCCC3)c3ccccc3n2)cc1	inconclusive: 10 µM [inhibitor, single point]
COc1nccc(C(F)(F)F)c1C(=O)Nc1ccc(Cl)cc1	inconclusive: 28.2 µM [inhibitor, single point]
O=C(N/N=C/c1cc(Cl)cc([N+](=O)[O-])c1O)c1cccc(S(=O)(=O)N2CCOCC2)c1	inconclusive: 28.2 µM [inhibitor, single point]
C=CCn1c(=N)n(CC(=O)c2ccc(Br)s2)c2ccccc21	inconclusive: 22.4 µM [inhibitor, single point]
COc1ccc(Nc2nc(N3CCCCC3)nc3ccccc23)c(OC)c1	inconclusive: 28.2 µM [inhibitor, single point]
CC1CC2=C(NC(=S)NC2c2cccc(F)c2)/C(=C/c2cccc(F)c2)C1 (configuration not stated)	inconclusive: 2.51 µM [inhibitor, full curve]
COc1ccc(-c2nc3ccccn3c2NC2CCCCC2)cc1SC1CCCCC1	inconclusive: 7.08 µM [inhibitor, partial curve, poor fit]
FC(F)Sc1ccc(NC(=S)NCC2CCCCC2)cc1	inconclusive: 12.6 µM [inhibitor, single point]
CC1(C)CC(NC(=O)c2cccc(S(=O)(=O)N(Cc3ccccc3)c3ccccc3)c2)CC(C)(C)N1	inconclusive: 28.2 µM [inhibitor, single point]
CNCc1ccccc1Sc1cccc(O)c1	inactive
C[C@@]12C(=O)N(CCO)CC(=O)N1[C@H](/C=C/c1ccccc1)[C@@H]1C(=O)N(c3ccccc3)C(=O)[C@@H]12	inactive
CC1CCCCC1NC(=S)Nc1ccc(Cl)cc1Cl (configuration not stated)	inconclusive: 28.2 µM [inhibitor, single point]
Cc1cnc(C(=O)NCc2ccc(F)cc2)cn1	inconclusive: 28.2 µM [inhibitor, single point]

Compound	Potency
Nc1nn2c(-c3ccccc3)cc(=O)[nH]c2c1N=Nc1ccc(O)cc1	inconclusive: 11.2 µM [inhibitor, single point]
CN(CC(=O)Nc1cccc(F)c1)C(=O)c1cn(-c2ccccc2)nc1-c1ccc(Cl)cc1	inconclusive: 28.2 µM [inhibitor, single point]
CCn1cc(C(=O)OCC(=O)c2cc(C)n(-c3cccc(C(F)(F)F)c3)c2C)c(=O)c2ccc(C)nc21	inconclusive: 11.2 µM [inhibitor, single point]
CCSc1nnc(NC(=O)C(C)(C(F)(F)F)C(F)(F)F)s1	inconclusive: 28.2 µM [inhibitor, single point]
COc1cccc(NC(=S)Nc2cc(C)cc(C)n2)c1	inconclusive: 2.24 µM [inhibitor, full curve, poor fit]
Cc1cccc(-n2ccnc2SCC(=O)Nc2ccccc2C(F)(F)F)c1	inactive
O=C(/C=C\c1ccco1)Oc1cccc2cccnc12	inconclusive: 5.01 µM [inhibitor, full curve, poor fit]
CCOC(=O)[C@H]1O[C@@H]1C(=O)N[C@@H](CC(C)C)C(=O)NCCC(C)C	inconclusive: 10 µM [inhibitor, partial curve]
CN(C(=O)COc1ccccc1C(=O)NCCOc1ccccc1)c1ccccc1	inconclusive: 7.08 µM [inhibitor, partial curve, poor fit]
COC(=O)c1ccc(NC(=O)c2nn(C)c3c2CS(=O)(=O)c2ccccc2-3)cc1	inactive
CCCCCCSC1=C(C#N)C(c2ccc(O)cc2)CC(=O)N1 (configuration not stated)	inactive
C/C(=N\Nc1cc(N2CCCCC2)nc(C)n1)c1ccc(Br)cc1	inconclusive: 28.2 µM [inhibitor, single point]
CCOC(=O)Cc1csc(NC(=S)NC(=O)c2ccccc2)n1	inconclusive: 28.2 µM [inhibitor, single point]
C[C@H]1CCC[C@]2(O[C@H](CCO)C[C@H](O)[C@H]2O)O1	inconclusive: 2.51 µM [inhibitor, full curve, poor fit]
COc1cc(NC(=S)NC(=O)c2c(OC)cccc2OC)ccc1NC(=O)c1cccs1	inconclusive: 11.2 µM [inhibitor, partial curve, poor fit]
CC(C)(C)c1ccc(C(=O)N2CCN(CCNC(=O)C(=O)Nc3ccc(F)cc3)CC2)cc1	inconclusive: 20 µM [inhibitor, partial curve, poor fit]
O=C(CCl)Nc1ccccc1C(=O)Nc1ccc2c(c1)OCO2	inconclusive: 11.2 µM [inhibitor, single point]
COc1ccc(C(=O)/C=C/c2ccc(O)cc2)c(O)c1CC=C(C)C	inconclusive: 28.2 µM [inhibitor, single point]
Cc1cccc(C)c1-n1c(C)cc(/C=N/NC(N)=S)c1C	inconclusive: 3.55 µM [inhibitor, full curve]
CCc1cc(-c2n[nH]c(=S)n2C(C)c2ccccc2)cs1 (configuration not stated)	inactive
CC1(C)Cc2c(cnn2-c2ccccc2)C(=O)/C1=N\NC(=O)c1ccncc1	inactive
